# Results taken from the supplement of paper PMC8728848.
# This is one part of the list.
# B1: CBM32-1 (Clostridium perfringens) (protein)
# chain: MGSSHHHHHHSSGLVPRGSHMASGVEITEGVTVTAKGNTEGNTADLAIDGDLSTYWESSNDYKWIEVDLGGIYELSKIEIFNKDEAVYKYNIYASEDGENFNKIAYKNNDNVSDSNGNVHTIDNVRAGKIRIDVVQNSNSDRVNIAEINVFG
# Tests used:
# Assay in all cases: glycan array binding signal (z-score within array); higher = stronger binding
# Settings in all cases: glycan notation: IUPAC condensed, linker removed
# Fuc(a1-2)Gal = target: Fuc(a1-2)Gal
# In short: (§1)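 Columns mapping to the same glycan were averaged after glycan names were converted to IUPAC-condensed notation. The data come from 3228 arrays in the Consortium for Functional Glycomics database, limited to those with an available protein sequence. Binding is reported as a within-array Z-score averaged across arrays of one protein sequence and across linkers.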
# Fuc(a1-2)Gal(b1-3)GalNAc = target: Fuc(a1-2)Gal(b1-3)GalNAc
# In short: as §1
# [1] = target: Fuc(a1-2)Gal(b1-3)GalNAc(b1-3)Gal
# In short: as §1
# [2] = target: Fuc(a1-2)Gal(b1-3)GalNAc(b1-3)Gal(a1-4)Gal(b1-4)Glc
# In short: as §1
# [3] = target: Fuc(a1-2)Gal(b1-3)GalNAc(b1-4)[Neu5Ac(a2-3)]Gal(b1-4)Glc
# In short: as §1
# Fuc(a1-2)Gal(b1-3)GlcNAc = target: Fuc(a1-2)Gal(b1-3)GlcNAc
# In short: as §1
# [4] = target: Fuc(a1-2)Gal(b1-3)GlcNAc(b1-3)Gal(b1-4)Glc
# In short: as §1
# [5] = target: Fuc(a1-2)Gal(b1-3)[Fuc(a1-4)]GlcNAc
# In short: as §1
# Fuc(a1-2)Gal(b1-4)Glc = target: Fuc(a1-2)Gal(b1-4)Glc
# In short: as §1
# Fuc(a1-2)Gal(b1-4)Glc6S = target: Fuc(a1-2)Gal(b1-4)Glc6S
# In short: as §1
# Fuc(a1-2)Gal(b1-4)GlcNAc = target: Fuc(a1-2)Gal(b1-4)GlcNAc
# In short: as §1
# [6] = target: Fuc(a1-2)Gal(b1-4)GlcNAc(b1-3)Gal(b1-4)GlcNAc
# In short: as §1
# [7] = target: Fuc(a1-2)Gal(b1-4)GlcNAc(b1-3)Gal(b1-4)GlcNAc(b1-3)Gal(b1-4)GlcNAc
# In short: as §1
# [8] = target: Fuc(a1-2)Gal(b1-4)GlcNAc6S
# In short: as §1
# [9] = target: Fuc(a1-2)Gal(b1-4)[Fuc(a1-3)]GlcNAc
# In short: as §1
# [10] = target: Fuc(a1-2)Gal(b1-4)[Fuc(a1-3)]GlcNAc(b1-3)Gal(b1-4)[Fuc(a1-3)]GlcNAc
# In short: as §1
# [11] = target: Fuc(a1-2)Gal(b1-4)[Fuc(a1-3)]GlcNAc(b1-3)Gal(b1-4)[Fuc(a1-3)]GlcNAc(b1-3)Gal(b1-4)[Fuc(a1-3)]GlcNAc
# In short: as §1
# Fuc(a1-2)Gal6S(b1-4)Glc = target: Fuc(a1-2)Gal6S(b1-4)Glc
# In short: as §1
# [12] = target: Fuc(a1-2)Gal6S(b1-4)Glc6S
# In short: as §1
# [13] = target: Fuc(a1-2)Gal6S(b1-4)GlcNAc
# In short: as §1
# Fuc(a1-2)[Gal(a1-3)]Gal = target: Fuc(a1-2)[Gal(a1-3)]Gal
# In short: as §1
# [14] = target: Fuc(a1-2)[Gal(a1-3)]Gal(b1-3)GlcNAc
# In short: as §1
# [15] = target: Fuc(a1-2)[Gal(a1-3)]Gal(b1-4)Glc
# In short: as §1
# [16] = target: Fuc(a1-2)[Gal(a1-3)]Gal(b1-4)GlcNAc
# In short: as §1
# [17] = target: Fuc(a1-2)[Gal(a1-3)]Gal(b1-4)[Fuc(a1-3)]GlcNAc
# In short: as §1
# [18] = target: Fuc(a1-2)[Gal(a1-4)]Gal(b1-4)GlcNAc
# In short: as §1
# [19] = target: Fuc(a1-2)[GalNAc(a1-3)]Gal
# In short: as §1
# [20] = target: Fuc(a1-2)[GalNAc(a1-3)]Gal(b1-3)GlcNAc
# In short: as §1
# [21] = target: Fuc(a1-2)[GalNAc(a1-3)]Gal(b1-4)Glc
# In short: as §1
# [22] = target: Fuc(a1-2)[GalNAc(a1-3)]Gal(b1-4)GlcNAc
# In short: as §1
# [23] = target: Fuc(a1-2)[GalNAc(a1-3)]Gal(b1-4)[Fuc(a1-3)]GlcNAc
# In short: as §1
# [24] = target: Fuc(a1-2)[GalNAc(a1-4)]Gal(b1-4)GlcNAc
# In short: as §1
# [25] = target: Fuc(a1-2)[GalNAc(b1-3)]Gal
# In short: as §1
# Fuc(a1-3)GlcNAc = target: Fuc(a1-3)GlcNAc
# In short: as §1
# [26] = target: Fuc(a1-3)[Gal(b1-4)]Glc6S
# In short: as §1
# [27] = target: Fuc(a1-3)[Gal(b1-4)]GlcNAc
# In short: as §1
# [28] = target: Fuc(a1-3)[Gal(b1-4)]GlcNAc(b1-2)Man(a1-3)[Fuc(a1-3)[Gal(b1-4)]GlcNAc(b1-2)Man(a1-6)]Man(b1-4)GlcNAc(b1-4)GlcNAc
# In short: as §1
# [29] = target: Fuc(a1-3)[Gal(b1-4)]GlcNAc(b1-2)Man(a1-6)[Gal(b1-4)GlcNAc(b1-2)Man(a1-3)]Man(b1-4)GlcNAc(b1-4)GlcNAc
# In short: as §1
# [30] = target: Fuc(a1-3)[Gal(b1-4)]GlcNAc(b1-3)Gal(b1-3)[Fuc(a1-4)]GlcNAc
# In short: as §1
# [31] = target: Fuc(a1-3)[Gal(b1-4)]GlcNAc(b1-4)Gal(b1-4)[Fuc(a1-3)]GlcNAc
# In short: as §1
# [32] = target: Fuc(a1-3)[Gal(b1-4)]GlcNAc(b1-4)Gal(b1-4)[Fuc(a1-3)]GlcNAc(b1-4)Gal(b1-4)[Fuc(a1-3)]GlcNAc
# In short: as §1
# [33] = target: Fuc(a1-3)[Gal(b1-4)]GlcNAc6S
# In short: as §1
# [34] = target: Fuc(a1-3)[Gal3S(b1-4)]Glc6S
# In short: as §1
# [35] = target: Fuc(a1-3)[Gal3S(b1-4)]GlcNAc
# In short: as §1
# [36] = target: Fuc(a1-3)[Gal3S(b1-4)]GlcNAc6S
# In short: as §1
binder,measurement,setting,value
B1,glycan array binding signal (z-score),Fuc(a1-2)Gal,-0.288
same,glycan array binding signal (z-score),Fuc(a1-2)Gal(b1-3)GalNAc,-0.463
same,glycan array binding signal (z-score),[1],1.21
same,glycan array binding signal (z-score),[2],-0.205
same,glycan array binding signal (z-score),[3],-0.373
same,glycan array binding signal (z-score),Fuc(a1-2)Gal(b1-3)GlcNAc,-0.171
same,glycan array binding signal (z-score),[4],-0.71
same,glycan array binding signal (z-score),[5],-0.766
same,glycan array binding signal (z-score),Fuc(a1-2)Gal(b1-4)Glc,-0.923
same,glycan array binding signal (z-score),Fuc(a1-2)Gal(b1-4)Glc6S,0.028
same,glycan array binding signal (z-score),Fuc(a1-2)Gal(b1-4)GlcNAc,-0.213
same,glycan array binding signal (z-score),[6],-0.461
same,glycan array binding signal (z-score),[7],0.515
same,glycan array binding signal (z-score),[8],-0.04
same,glycan array binding signal (z-score),[9],-0.577
same,glycan array binding signal (z-score),[10],-0.336
same,glycan array binding signal (z-score),[11],0.212
same,glycan array binding signal (z-score),Fuc(a1-2)Gal6S(b1-4)Glc,-0.366
same,glycan array binding signal (z-score),[12],0.812
same,glycan array binding signal (z-score),[13],-0.54
same,glycan array binding signal (z-score),Fuc(a1-2)[Gal(a1-3)]Gal,1.9
same,glycan array binding signal (z-score),[14],-0.527
same,glycan array binding signal (z-score),[15],-0.705
same,glycan array binding signal (z-score),[16],-0.226
same,glycan array binding signal (z-score),[17],-0.365
same,glycan array binding signal (z-score),[18],-0.647
same,glycan array binding signal (z-score),[19],0.167
same,glycan array binding signal (z-score),[20],-0.853
same,glycan array binding signal (z-score),[21],-0.136
same,glycan array binding signal (z-score),[22],-0.319
same,glycan array binding signal (z-score),[23],-0.114
same,glycan array binding signal (z-score),[24],0.059
same,glycan array binding signal (z-score),[25],-0.529
same,glycan array binding signal (z-score),Fuc(a1-3)GlcNAc,0.369
same,glycan array binding signal (z-score),[26],0.569
same,glycan array binding signal (z-score),[27],-0.371
same,glycan array binding signal (z-score),[28],1.55
same,glycan array binding signal (z-score),[29],-0.262
same,glycan array binding signal (z-score),[30],-0.493
same,glycan array binding signal (z-score),[31],0.331
same,glycan array binding signal (z-score),[32],-0.707
same,glycan array binding signal (z-score),[33],-0.235
same,glycan array binding signal (z-score),[34],1.22
same,glycan array binding signal (z-score),[35],-0.283
same,glycan array binding signal (z-score),[36],1.6
